PubChem BioAssay AID1362 (SRMLSC, 2008)
This is one part of the list. Further columns of the screen follow, without active or inactive calls. Most of these compounds were active or inconclusive in the main read-out, so they are no random draw.

test: growth inhibition of WT strain, primary screen, mitochondrial fusion inhibitor project, WT and mutant strains, chemical genetic (AID 1362); conditions: mitochondrial fusion phenotypic screen, at 10 µM; also: tested in S. cerevisiae

Compound | inhibition [%]
CCCCCC1CC(CC(=O)NC(=S)Nc2ccccc2Cl)C(=O)O1 (stereo not given) | 18.2
C(=C\c1ccccc1)/CN1CCN(c2ncnc3c2oc2ccccc23)CC1 | 32.1
NNC(=O)c1cc2c(N3CCC(Cc4ccccc4)CC3)ncnc2s1 | -16.4
Cc1ccc(Oc2nc(CN3CCOCC3)nc3sc4c(c23)CCC(C)C4)cc1C (stereo not given) | 20.7
C/C(CCC(C)C)=N\NC(=S)NCc1ccccc1 | 48.8
CNC(=S)N1N=C(c2ccc(C)cc2)CC1c1ccc(Br)cc1 (stereo not given) | 53.4
Cc1ccc(CCc2nnc(SCC(=O)Nc3cc(Cl)ccc3Cl)n2-c2ccccc2)o1 | 13
CC(C)[C@@H]1CC[C@@H](C)c2c(-c3ccccc3)n[nH]c21 | 17.3
Cc1ccccc1NS(=O)(=O)c1cc(C(=O)N2CCc3ccccc3C2)ccc1C | -2.04
CC(=O)C1=C(c2ccc(Br)cc2)C(=O)c2ccccc2C1=O | 90.8
c1ccc(Cn2c(SCc3cn4cccnc4n3)nnc2-c2ccco2)cc1 | 11
CCCCCCCCCc1nc2sc3c(c2c(=O)n1NC(=O)c1ccc([N+](=O)[O-])cc1)CC(C)(C)OC3 | 22.3
CC1(c2ccc(Cl)cc2Cl)OCC(Cn2ccnc2)O1 (stereo not given) | 42.9
CN(C(=O)Nc1ccc(Cl)c(Cl)c1)c1ccccc1C(=O)O | 71.5
Cc1ccc(NC(=S)Nc2cccc3cnccc23)c(C)c1 | 56
O=C(Nc1ccccc1N1CCCCC1)c1ccccc1F | 47.6
COC(=O)Cc1ccc(N(Cc2ccccc2F)S(=O)(=O)c2ccc(C)cc2)cc1 | 6.46
COc1ccccc1N1CCN(CC(=O)Nc2ccc(Cl)c(C(F)(F)F)c2)CC1 | 5.07
COc1ccc(C2=NN(C(=O)c3cccs3)C(c3ccccc3OC)C2)cc1OC (stereo not given) | 57.3
CC(C)(C)N/N=C1\CC(c2ccccc2)Oc2ccccc21 (stereo not given) | -2.57
CNc1oc(-c2ccc(Cl)cc2)nc1P(=O)(c1ccccc1)c1ccccc1 | 50.2
O=C(Nc1cccc(C(F)(F)F)c1)N(Cc1ccc(Cl)cc1)CC(O)C(F)(F)F (stereo not given) | 43.1
Cc1ccc(C)c(NC(=S)N(Cc2ccco2)C(C)c2cccs2)c1 (stereo not given) | 19.8
CCOC(=O)c1c(C)sc(Sc2ccc(Cl)cc2[N+](=O)[O-])c1OC | 56.2

Compound | inhibition [%]
CC(Sc1nc2ccccc2n1C)C(=O)NC(c1ccccc1)c1ccccc1 (stereo not given) | 24.7
COC(=O)c1[nH]c2cccc(Cl)c2c1NC(=O)CN(C)C1CCCCC1 | 45.9
c1ccc2c(c1)CCN(c1ncnc3c1[nH]c1ccccc13)C2 | -2.77
Cc1[nH]n(C2=NCCS2)c(=O)c1N=Nc1cccc(C(F)(F)F)c1 | 79.1
CC(=O)Nc1ccc(NC(=O)CSc2nnc(-c3ccccc3)n2Cc2ccc3c(c2)OCO3)cc1 | 18.5
COc1ccc(-c2nnc(SCc3cc(C)cc(C)c3)o2)cc1 | 9.53
CCOC(=O)c1c(C)oc2ccc(OC(=O)c3cccs3)cc12 | 28.9
O=C(Nc1ccc(Cl)cc1)N1CCC(c2nc(-c3ccccc3Cl)no2)CC1 | 64.3
Cc1cc(CC(C)C)n(-c2nc3ccccc3c(=O)n2OCc2ccccc2)n1 | 3.84
CCC(/C=C1\Sc2ccc(OC)cc2N1CCO)=C\c1sc2ccc(OC)cc2[n+]1CCO | 62.7
S=c1[nH]nc(C2CC2c2ccc(Cl)cc2)n1-c1ccc(Cl)cc1 (stereo not given) | 54.9
Cn1c(C(=O)N2CCc3ccccc3C2)cc2oc3ccccc3c21 | 42.1
CCNc1nc(NC(C)(C)C)nc(N2CCCC2)n1 | 45.5
c1cc2c(cc1C1CCCCC1)c1c3n2CCN=C3CCC1 | 91.4
CC1CC(C)CN(c2ncnc3c2cnn3-c2ccc(Cl)cc2)C1 (stereo not given) | 15.7
CCOC(=O)C1C(=O)C=C(c2ccc(Br)cc2)CC1c1ccco1 (stereo not given) | 25
CC(C)(C)NS(=O)(=O)c1cnc(Cl)c(Cl)c1 | 1.14
CCCCOC(=O)Nc1cccc(C(=O)OCC)c1 | -3.02
CC1CC(C)CN(c2ncc3c(n2)CC(c2ccccc2)CC3=O)C1 (stereo not given) | 32.9
COc1ccc(-c2cc3nc(-c4ccccc4)cc(N4CCCC(O)C4)n3n2)cc1 (stereo not given) | 26.4
CCC(C)(C)NC(=O)C(c1ccc(C)cc1)N(Cc1cccs1)C(=O)c1ccc2c(c1)OCCO2 (stereo not given) | 2.65
CC(C)(C)c1ccc(OCCC(=O)NC2=NCCS2)cc1 | 66.7
O=C(/C=C/c1ccc(Cl)cc1)NC(=S)NN1CCCCC1c1cccnc1 (stereo not given) | 23.8
O=[N+]([O-])c1ccc(N/N=C/c2c[nH]c3ccccc23)cc1 | 71

Compound | inhibition [%]
Cc1ccccc1NC(=S)NCCC(c1ccccc1)c1ccccc1 | 65
Brc1cnc(N2CCCCC2)nc1N1CCOCC1 | 3.71
CCCCN=C(NNc1ccc(Br)cc1)C(=O)OCC | 56
NC(=S)n1[nH]c(-c2ccc([N+](=O)[O-])cc2)c(N=Nc2ccc(Cl)cc2)c1=O | 26.7
COc1ccc(NC(=O)c2ccc(-c3ccccc3C(F)(F)F)o2)cc1 | -0.39
Cc1nn(-c2ccccc2)c(N)c1N=Nc1ccc2ccccc2c1 | 67.3
Cn1cccc1/C=C1\CCc2ccccc2C1=O | 49.6
CC1CN(c2nc3ccccc3cc2-c2ccccc2)CC(C)O1 (stereo not given) | 67.1
c1ccc2c(c1)ncn2CCCOc1ccc2c(c1)CCC2 | 61.4
O=S(=O)(Nc1cc(Cl)ccc1N1CCCCC1)c1cccs1 | 39.2
NS(=O)(=O)c1ccc(N/N=C2/CCCCC2C2CCCCC2)c([N+](=O)[O-])c1 (stereo not given) | 92.5
CO/N=C\c1cc(C(=O)c2ccc(Cl)cc2Cl)cn1C | 31.6
CCOC(=O)/C(C#N)=C1\Nc2ccccc2N=C1N(CC(C)C)CC(C)C | 28.5
CC(C)C(c1nnnn1C(C)(C)C)N1CCN(c2cccc(Cl)c2)CC1 (stereo not given) | 53.5
O=C(/C=N/O)NCCN1CCCCC1 | 17.7
CSC1=NC(C)(C)C=C(/C=C/c2ccc(Cl)cc2Cl)N1 | 63.2
COc1ccccc1-c1c(C)nn2c(N3CCCCCC3)cc(C)nc12 | 55.7
Cc1cc(Cl)ccc1NC(=S)NCCC(c1ccccc1)c1ccccc1 | 17.6
CC(C)(C)c1ccc(Cn2c(=N)n(CC(O)c3ccco3)c3ccccc32)cc1 (stereo not given) | 29.6
CC#CC[N+](C)(C)CCCCCCCCCCCC | 70.2
CC(NC(=O)/C(=C/c1ccc(OC(F)F)cc1)c1ccccc1)c1ccccc1 (stereo not given) | 12.6
S=C1NCCc2ccc(Cl)cc2C1c1ccccc1 (stereo not given) | 62.3
